Data: PubChem BioAssay AID2147 (National Center for Advancing Translational Sciences (NCATS), 2009)
In all, about 230,000 compounds went through this assay and about 3,600 (1.6%) were called active. Inconclusive results, whose numbers are uncertain, are shown with a selection of clear calls. The call rests on the fitted dose curve; in most records, active means well fitted inhibition curve with a large enough effect (not every such curve was filed as active); inconclusive means small, poorly fitted or top-dose-only effect, or another doubt; inactive means no such curve, though single readings can be large or run the other way. Where the call is inconclusive, the potency comes from a doubtful curve fit.

Each compound was assayed against Lysine-specific demethylase 4E (Homo sapiens) (UniProt B2RXH2) (assay: qHTS Assay for Inhibitors of Human Jumonji Domain Containing 2E (JMJD2E)). Settings: JMJD2E catalytic domain, FDH-coupled NADH fluorescence (FDH is formaldehyde dehydrogenase); series mostly up to 57.1 µM; activity change, negative = inhibition: at the top concentration.
Chain of UniProt B2RXH2 (B2RXH2 whole entry, looked up, the tested form may be a part): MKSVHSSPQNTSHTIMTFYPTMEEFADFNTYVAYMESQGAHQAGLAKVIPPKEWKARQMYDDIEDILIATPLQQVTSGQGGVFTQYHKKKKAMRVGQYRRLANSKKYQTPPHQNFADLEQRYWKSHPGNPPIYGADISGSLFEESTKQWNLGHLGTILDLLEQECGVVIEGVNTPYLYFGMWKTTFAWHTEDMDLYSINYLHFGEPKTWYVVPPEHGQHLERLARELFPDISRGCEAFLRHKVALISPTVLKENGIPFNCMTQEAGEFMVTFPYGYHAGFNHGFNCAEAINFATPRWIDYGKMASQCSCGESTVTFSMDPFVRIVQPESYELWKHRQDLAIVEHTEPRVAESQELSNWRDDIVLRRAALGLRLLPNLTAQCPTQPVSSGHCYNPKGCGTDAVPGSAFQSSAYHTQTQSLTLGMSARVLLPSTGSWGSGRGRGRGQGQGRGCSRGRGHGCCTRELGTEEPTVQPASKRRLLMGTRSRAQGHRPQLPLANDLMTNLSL
Further: nearly all actives have a fitted effect of over 50% in size.
Potency means the concentration at half of the fitted maximal effect; tags describe the fitted curve by direction and shape.
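Wherever activity change, negative = inhibition is given: 0% = wells with enzyme and -100% = buffer wells without enzyme.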

Structure (SMILES) | Potency | activity change, negative = inhibition
Cc1ccc(C(=O)Nc2nnc(-c3ccncc3)s2)o1 | inconclusive: 35.5 µM [inhibitor, partial curve] | –
CC(C)CC(=O)Nc1cccc(-c2nc3ccccc3[nH]2)c1 | inconclusive: 25.1 µM [inhibitor, partial curve] | –
CCCCOC(=O)c1sc2nc(N3CCOCC3)c3c(c2c1N)CC(C)(C)OC3 | inconclusive: 0.251 µM [inhibitor, full curve] | –
CCOc1ccc(NC(=O)CSc2nnc(C3CC3)n2C)cc1 | – | inactive: -4.08%
COC(=O)c1ccccc1NC(=O)NC1CCCC1 | inconclusive: 28.2 µM [inhibitor, partial curve] | –
Cc1ccc2cc(C)c3nnc(SCC(=O)N4CCN(C(=O)c5ccco5)CC4)n3c2c1 | inconclusive: 39.8 µM [inhibitor, single point] | –
COC(=O)c1c(C)oc(C)c1S(=O)(=O)NCc1ccc(Cl)cc1 | – | inactive: 1.03%
O=C(c1ccccc1)N1CCN(Cc2ccccc2C(F)(F)F)CC1 | inconclusive: 28.2 µM [inhibitor, single point] | –
COc1ccccc1-c1cc(C(=O)N2CCc3ccccc3C2)c2ccccc2n1 | inconclusive: 25.1 µM [inhibitor, partial curve] | –
Cc1ccc2nc3c(cc(C(=O)NCc4ccco4)c(=N)n3Cc3ccco3)c(=O)n2c1 | inconclusive: 17.8 µM [inhibitor, partial curve] | –
Clc1ccc(/C=N/c2c(-c3ccco3)nc3ccccn23)cc1 | inconclusive: 14.1 µM [inhibitor, partial curve] | –
Cc1cc(=O)n2[nH]c(-c3ccccc3)cc2n1 | inconclusive: 31.6 µM [inhibitor, partial curve] | –
COc1ccc(OC)c(NC(=O)C2C3CCC(O3)C2C(=O)O)c1 (centres undefined) | inconclusive: 39.8 µM [inhibitor, single point] | –
COc1ccc(-c2[nH]c(-c3ccc(SC)cc3)nc2SCC(=O)Nc2nccs2)cc1 | inconclusive: 31.6 µM [inhibitor, partial curve] | –
CCOC(=O)c1cc(CC)sc1/N=C/C1C(=O)CCCC1=O | inconclusive: 22.4 µM [inhibitor, partial curve, poor fit] | –
O=c1c2[nH]c3cccc(Cl)c3c2ncn1Cc1ccncc1 | inconclusive: 31.6 µM [inhibitor, single point] | –
O=C(c1ccc(S(=O)(=O)c2cccc(Cl)c2)c([N+](=O)[O-])c1)N1CCN(c2ccccn2)CC1 | – | inactive: 2.94%
O=C(O)CN1CCCCC1 | – | inactive: -3.69%
O=C(Nc1ccc(S(=O)(=O)Nc2nccs2)cc1)/C(=C/c1ccccc1Cl)NC(=O)c1ccccc1 | – | inactive: -21%
